Test results taken from PubChem BioAssay AID1347055 (National Center for Advancing Translational Sciences (NCATS), 2019).
Values joined by “and” are separate entries in the source; they are usually repeats but may differ in a detail not shown here. Equal entries are not always repeated. The campaign covered roughly 54,000 compounds. About 120 (0.22%) were called active. This list was built around the results that the source calls inconclusive (neither active nor inactive); the mix of calls is not that of the screen. Calls come from the whole dose curve; as a rule, active = well fitted inhibition curve with a large enough effect; inconclusive = small, poorly fitted or top-dose-only effect, or effect the other way; inactive = flat fitted curve, though single readings scatter. A potency beside an inconclusive call is a rough fit, not a confirmed value. The source holds several records for some structures; these can differ, active in one and inactive in another.

biological target: Fumarate hydratase, mitochondrial (Homo sapiens) (UniProt P07954); assay: Identification of activators of human fumarate hydratase by quantitative high-throughput screening; conditions: FH coupled MDH/diaphorase resazurin fluorescence, 15 min; series mostly up to 79.9 µM; note: the screen sought activators but most active calls are inhibition curves; nearly all actives have a fitted effect of over 45% in size
Potency is the fitted concentration of half-maximal effect; tags give direction and shape of the fitted curve.

UniProt P07954, sequence (P07954 whole entry, looked up): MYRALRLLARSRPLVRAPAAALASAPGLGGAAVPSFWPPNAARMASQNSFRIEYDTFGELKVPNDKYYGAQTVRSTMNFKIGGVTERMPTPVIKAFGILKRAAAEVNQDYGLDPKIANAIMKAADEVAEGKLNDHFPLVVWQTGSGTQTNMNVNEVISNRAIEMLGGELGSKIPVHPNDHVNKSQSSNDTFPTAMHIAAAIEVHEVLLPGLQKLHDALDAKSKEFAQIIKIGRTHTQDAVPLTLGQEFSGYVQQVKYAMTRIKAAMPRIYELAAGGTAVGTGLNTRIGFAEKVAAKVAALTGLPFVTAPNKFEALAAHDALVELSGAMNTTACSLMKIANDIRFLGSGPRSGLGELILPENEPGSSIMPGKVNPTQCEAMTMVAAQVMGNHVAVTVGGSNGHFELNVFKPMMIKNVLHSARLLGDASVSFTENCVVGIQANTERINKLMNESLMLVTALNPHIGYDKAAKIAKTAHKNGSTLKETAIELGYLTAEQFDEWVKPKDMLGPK

SMILES	Potency
CC(=O)CC(=O)Nc1ccc(Cl)c(C(F)(F)F)c1	inactive
Cc1ccc(CNC(=O)CSc2n[nH]c(-c3ccc(F)cc3)n2)cc1	inactive
Cc1ccc(C)c(Cn2c(C3CC(=O)N(c4ccccc4C)C3)nc3ccccc32)c1 (stereo not given)	inconclusive: 25.1 µM [inhibitor, partial curve]
CCN(CC)c1ccc(NS(=O)(=O)c2cc3[nH]c(=O)c(=O)[nH]c3cc2C)c(C)c1	inconclusive: 15.8 µM [inhibitor, partial curve]
Cc1nnc(N2CCCC(C(=O)NCCc3ccc(Cl)cc3)C2)c2nn(-c3ccccc3)c(C)c12 (stereo not given)	inconclusive: 28.2 µM [inhibitor, partial curve]
CCOc1ccc(-c2nn(CC(=O)NC3CCCC3)c3c2cnc2ccc(F)cc23)cc1	inconclusive: 11.2 µM [inhibitor, partial curve, poor fit]
CC1(C)CCC2=C(O1)c1ccccc1C(=O)C2=O	inconclusive: 30.6 µM [inhibitor, partial curve] and inconclusive: 28.2 µM [inhibitor, partial curve]
O=C(NCCCN1CCN(c2ccc(F)cc2)CC1)c1ccc2nc(Cc3ccccc3)oc2c1	inactive
Cc1ccc2c(=O)cc(C(=O)Nc3cccc(C(F)(F)F)c3)oc2c1C	inconclusive: 1 µM [inhibitor, partial curve]
COc1ccc(NS(=O)(=O)c2ccc3[nH]c4c(c3c2)CCCC4)cc1Cl	inconclusive: 31.6 µM [inhibitor, single point]
O=C1Nc2ccccc2/C1=C/c1cc(O)ccc1O	inconclusive: 31.6 µM [inhibitor, single point]
COc1ccccc1N1CCN(CCCNC(=O)c2cnn(-c3ccccc3)c2C2CCN(C(=O)OC(C)(C)C)CC2)CC1	inconclusive: 3.98 µM [inhibitor, partial curve, poor fit]
CCN(CC)CCCCNc1nc2cc(Cl)c(Cl)cc2nc1-c1ccc(-c2cccs2)s1	inactive
CC(C)NC(=O)c1ccc(C#Cc2ccncc2)cn1	inactive
CCOC(=O)c1cccc(NC(=O)NCc2ccc3c(c2)CCN3C(=O)c2ccccc2)c1	inconclusive: 44.7 µM [inhibitor, partial curve, poor fit]
Cc1ccc(NC(=O)c2cc(S(=O)(=O)N3CCc4ccccc43)ccc2F)cc1Cl	inconclusive: 11.2 µM [inhibitor, partial curve]
COc1ccc2c(CNCCc3ccco3)c(C(=O)O)n(Cc3ccccc3)c2c1	inactive
Cc1nc(-c2cccnc2)sc1CCNS(=O)(=O)c1ccc(F)cc1	inactive
CCc1ccccc1Nc1cc(C(=O)NC(C)c2ccccc2)c2ccccc2n1 (stereo not given)	inconclusive: 25.1 µM [inhibitor, partial curve, poor fit]
COc1cc(C2c3c(-c4cc(C)ccc4O)n[nH]c3C(=O)N2CCCO)ccc1OCCC(C)C (stereo not given)	inactive

SMILES	Potency
CN(C)[C@@H]1C(=O)C(C(N)=O)=C(O)[C@@]2(O)C(=O)C3=C(O)c4c(O)ccc(Cl)c4[C@@H](O)[C@H]3C[C@@H]12	inconclusive: 35.5 µM [inhibitor, single point]
Cc1cccc(CCNC(=O)c2sc3nc4n(c(=O)c3c2C)CCCC4)c1	inconclusive: 22.4 µM [inhibitor, partial curve]
COc1ccc(C2CC(=O)Nc3c2c(C)nn3-c2nncc(-c3ccc(C)cc3)n2)c(OC)c1OC (stereo not given)	inconclusive: 35.5 µM [inhibitor, partial curve, poor fit]
CCOC(=O)Nc1ccc(NCc2ccc(F)cc2)nc1N	active: 12.6 µM
CCSc1nnc2n(-c3cccc(C)c3)c(=O)c3c4c(sc3n12)CCCC4	inconclusive: 20 µM [inhibitor, partial curve, poor fit]
Cc1ccc2onc(CNC(=O)N3CCN(c4cccc(C)c4C)CC3)c2c1	inconclusive: 35.5 µM [inhibitor, partial curve, poor fit]
O=C(NCCc1csc2nc(-c3ccccc3F)nn12)c1ccco1	inactive
COc1ccc(N(C)C(=O)c2cn(C3CCCCC3)c(=O)c3c2c2ccccc2n3C)cc1	inconclusive: 31.6 µM [inhibitor, single point]
Cc1ccc(-c2nc3sc(CCNC(=O)c4ccc(Br)o4)c(C)n3n2)cc1	inconclusive: 39.8 µM [inhibitor, partial curve]
COc1ccccc1-c1nnc(SCC(=O)c2ccc(Cl)cc2)n1-c1ccccc1	inconclusive: 31.6 µM [inhibitor, partial curve, poor fit]
CCCCN(CCCC)C(=O)c1cc2c(=O)n3cccc(C)c3nc2s1	inconclusive: 28.2 µM [inhibitor, partial curve, poor fit]
CC(C)(C)OC(=O)N1CCC(c2c(C(=O)N3CCC(c4ccccc4)C3)cnn2-c2cccc(Cl)c2)CC1 (stereo not given)	inconclusive: 10 µM [inhibitor, partial curve, poor fit]
COc1ccc(N(C)C(=O)CCn2cnc3onc(-c4ccc(F)cc4)c3c2=O)c(OC)c1	inconclusive: 39.8 µM [inhibitor, partial curve, poor fit]
CCN1C(=O)c2ccccc2Sc2ccc(C(=O)NCCCN(CC(C)C)CC(C)C)cc21	inconclusive: 39.8 µM [inhibitor, single point]
CN1C(=O)c2ccccc2Sc2ccc(NC(=O)c3ccccc3F)cc21	inconclusive: 31.6 µM [inhibitor, single point]
CCOC(=O)c1c(C)[nH]c(C)c1S(=O)(=O)N(C)CC(=O)Nc1ccc(C)cc1C	inconclusive: 3.55 µM [inhibitor, partial curve, poor fit]
COc1ccc(-c2cc(C(C)=O)c(C)n2CCC(=O)Nc2cc(Cl)ccc2C)cc1	inactive
NCc1c[nH]c(=S)n1C1CCc2c(F)cc(F)cc2C1 (stereo not given)	inactive
CCOC(=O)c1cccc(NC(=O)CCn2c(-c3ccc(F)cc3)cc(C(=O)OCC)c2C)c1	inconclusive: 39.8 µM [inhibitor, partial curve, poor fit]
Cc1cc(O)c(-c2ccc([C@@H](C)CN(C)C)cc2)c2c1[nH]c(=O)c1sccc12	inconclusive: 50.1 µM [inhibitor, single point]

SMILES	Potency
Cc1ccc(-n2ncc3c(NC4CCCCCC4)ncnc32)cc1Cl	inconclusive: 44.7 µM [inhibitor, partial curve, poor fit]
CCCCN(CCCNC(=O)c1cc(Nc2ccc(OC)c(OC)c2)nc2ccccc12)Cc1ccccc1	inconclusive: 39.8 µM [inhibitor, single point]
CCc1ccc(CN(Cc2cn[nH]c2-c2ccc(OC)cc2)C(=O)Nc2cc(Cl)ccc2OC)cc1	inconclusive: 31.6 µM [inhibitor, single point]
CCC(Sc1nc2ccccc2c(=O)n1CCc1ccc(OC)c(OC)c1)C(=O)N(CC)CC (stereo not given)	inconclusive: 35.5 µM [inhibitor, partial curve, poor fit]
COc1cc(NC(=O)Cn2cnc(S(=O)(=O)N3CCCC3)c2)cc(OC)c1OC	inconclusive: 28.2 µM [activator, single point]
CCOC(=O)c1c(C)[nH]c(C)c1S(=O)(=O)N1CCCC(C(=O)N2CCN(c3cccc(C)c3C)CC2)C1 (stereo not given)	inconclusive: 31.6 µM [inhibitor, single point]
O=C(NCCc1ccccc1)c1nc(-c2ccc(Cl)cc2)n2c1CCCCC2	inconclusive: 35.5 µM [inhibitor, single point]
O=C(Nc1ccc(F)cc1)c1csc2c1CCCCC2	inactive
O=C1NC(=O)/C(=C\c2ccc(-c3ccc(F)cc3O)o2)S1	inconclusive: 35.5 µM [inhibitor, partial curve]
Cc1ccc(S(=O)(=O)Nc2cccc(-c3cn4cccc(C)c4n3)c2)c(C)c1	inconclusive: 28.2 µM [inhibitor, single point]
CCOc1ccc(NC(=O)c2ccc3[nH]c(C)c(C)c3c2)cc1	inconclusive: 31.6 µM [inhibitor, single point]
N#C/C(=C\c1ccc(-c2ccc(C(=O)O)cc2)o1)C(=O)Nc1ccccc1C(=O)O	active: 14.1 µM
O=C(CC1N=C2c3ccccc3N=C(SCc3cccc(Cl)c3)N2C1=O)NCc1ccc2c(c1)OCO2 (stereo not given)	inconclusive: 50.1 µM [inhibitor, single point]
Cc1ccc(Cc2c(C)nc3nc(SCC(=O)NC4CCC(C)CC4)nn3c2C)cc1 (stereo not given)	inconclusive: 28.2 µM [inhibitor, partial curve]
C=C(C=O)[C@]1(O)C[C@@]2(C)C(=CC1=O)C=C[C@H](OC(=O)/C=C/C=C/[C@H](C)CC)[C@@H]2C	inactive
Clc1ccc(Nc2nnc(Cc3ccncc3)c3ccccc23)cc1	inactive
COc1ccc(OC)c(CNC(=O)c2ccc(Sc3ccc(C)cc3)c(N)c2)c1	inconclusive: 28.2 µM [inhibitor, partial curve, poor fit]
O=C1NC(=O)/C(=C/c2cccc(C(F)(F)F)c2)S1	inconclusive: 35.5 µM [inhibitor, single point]
Cc1cc(O)c2c(c1)C(=O)c1cc(O)cc(O)c1C2=O	inconclusive: 35.5 µM [inhibitor, partial curve, poor fit]
CCOC(=O)c1c(-c2ccccc2)oc2ccc(NS(=O)(=O)c3cc(C)c(C)cc3C)cc12	inconclusive: 35.5 µM [inhibitor, single point]
